Whole data set: some 33,000 sequences, median “E-score (-0.5 to 0.5)” near -0.012, cut for the highest 2% near 0.29. The list shows a part of the results.
molecular target: T1, Ybr033w (UniProt P38073); assay: PBM E-score (8-mer binding enrichment) (E-score (-0.5 to 0.5)); higher = stronger / more preferred TF binding; most listed sequences are background and not binding sites; conditions: protein concentration: 200 nM; construct: GST-full length
T1 sequence: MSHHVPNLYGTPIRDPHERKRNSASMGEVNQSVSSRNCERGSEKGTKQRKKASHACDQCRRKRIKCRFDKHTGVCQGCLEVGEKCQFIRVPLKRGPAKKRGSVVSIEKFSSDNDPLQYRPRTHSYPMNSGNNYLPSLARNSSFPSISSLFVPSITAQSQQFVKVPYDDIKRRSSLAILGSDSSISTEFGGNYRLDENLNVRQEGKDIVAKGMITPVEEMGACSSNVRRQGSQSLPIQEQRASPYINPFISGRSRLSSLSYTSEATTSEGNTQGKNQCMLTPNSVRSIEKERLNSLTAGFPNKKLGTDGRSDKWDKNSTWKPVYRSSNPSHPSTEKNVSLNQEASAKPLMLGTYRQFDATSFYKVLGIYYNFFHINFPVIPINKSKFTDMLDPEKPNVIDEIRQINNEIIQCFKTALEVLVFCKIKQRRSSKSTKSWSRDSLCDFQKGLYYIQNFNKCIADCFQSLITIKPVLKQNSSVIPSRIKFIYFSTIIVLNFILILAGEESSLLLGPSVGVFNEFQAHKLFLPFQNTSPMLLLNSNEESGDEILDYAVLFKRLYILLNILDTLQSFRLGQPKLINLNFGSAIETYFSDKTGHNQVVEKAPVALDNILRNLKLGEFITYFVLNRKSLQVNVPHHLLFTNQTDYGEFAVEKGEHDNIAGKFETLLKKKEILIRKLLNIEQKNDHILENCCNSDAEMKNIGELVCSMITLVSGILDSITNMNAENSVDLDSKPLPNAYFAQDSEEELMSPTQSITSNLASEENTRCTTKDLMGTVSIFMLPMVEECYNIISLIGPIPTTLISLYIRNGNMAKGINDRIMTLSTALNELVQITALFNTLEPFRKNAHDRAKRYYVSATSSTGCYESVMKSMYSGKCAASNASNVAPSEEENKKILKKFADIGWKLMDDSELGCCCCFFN
Procedure: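 Universal 'all 10-mer' protein binding microarrays (Agilent AMADID 015681) probed with GST-tagged S. cerevisiae TFs (full-length or DBD) made by in vitro transcription/translation (PURExpress), about 100-200 nM. Bound TF was detected with fluorescent anti-GST. Each ungapped 8-mer (which stands for itself and its reverse complement) is scored by the PBM enrichment score (E-score), a modified Wilcoxon-Mann-Whitney statistic from -0.5 to +0.5, computed with the Universal PBM Analysis Suite. Scale: above 0.35 generally sequence-specific binding.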

Row | Sequence | PBM E-score
1 | CTCCGCGC | -0.111
2 | AGGGTCTC | -0.239
3 | CTGCATGC | -0.0915
4 | CGTGTGCA | -0.0791
5 | AAACGCGC | 0.00831
6 | CAAGTGGG | -0.0947
7 | CACCCGTC | -0.042
8 | ACTCACTG | 0.0718
9 | AAGTGTAA | -0.05
10 | CAACGGCC | -0.123
11 | AACAACAA | 0.264
12 | AGCCATTG | 0.119
13 | AAAGTCAT | -0.0166
14 | AGGACTAA | 0.0642
15 | CACGAGGG | -0.209
16 | GAGCGGAA | 0.191
17 | AATGTGAC | 0.0448
18 | AGATCCAC | 0.0307
19 | ACAGGTAG | -0.106
20 | AGCAAGGA | -0.0752
21 | ACTGCGGG | -0.0222
22 | ATCAGACG | -0.0427

Row | Sequence | PBM E-score
23 | AGTCGTAC | -0.0631
24 | ATCCTCGG | 0.167
25 | AGAATAGC | 0.129
26 | TGGAGCAA | 0.129
27 | ACGAGGGG | -0.254
28 | GCGTTGAC | -0.152
29 | CCCAATAA | 0.042
30 | TACTGCTA | -0.0593
31 | AGGGCCCT | -0.273
32 | AAACACAT | 0.213
33 | ATCTGCTC | -0.109
34 | GCAGGTTA | -0.185
35 | AAATGACT | 0.0631
36 | AATGCTGA | 0.0408
37 | GCCGCTGA | -0.0774
38 | GTATAAGA | 0.146
39 | GACCCTCA | -0.272
40 | ATATACGC | 0.0817
41 | CGAAGTCC | -0.19
42 | TGCCCGCA | -0.0361
43 | AGCTTACG | -0.137
44 | CCCACCTC | -0.244

Row | Sequence | PBM E-score
45 | GAGACAGC | -0.111
46 | CCAAGTCG | 0.0215
47 | GCAGATAA | 0.118
48 | AATTATGA | 0.256
49 | CGCCACTA | -0.19
50 | CGGAGACG | 0.148
51 | CGAACTGA | -0.0653
52 | GAACTCCA | 0.0411
53 | TCCACAGA | 0.0534
54 | CGCCTAAG | -0.246
55 | ATCGTGCG | 0.214
56 | ATTACGGG | 0.0913
57 | AGTTGTAT | 0.0541
58 | GAATATGC | 0.0001
59 | GCAAGCCA | -0.181
60 | TAAGATCA | 0.0811
61 | GATACGGA | 0.0867
62 | CTACGGAC | -0.138
63 | ATTGGCAC | -0.122
64 | GAGCGTTA | 0.113
65 | AGACACCA | -0.0381
66 | AGAGTACA | 0.121

Row | Sequence | PBM E-score
67 | CCTGTTGA | 0.0115
68 | ACCCCGCA | -0.0412
69 | AAAAACAG | 0.00845
70 | AGGCAAAT | 0.055
71 | GACTTGCA | -0.0525
72 | AGCAATAA | -0.0947
73 | AACGGAAC | 0.0665
74 | TCGACCCA | -0.0614
75 | ATGCATGC | -0.0577
76 | AGATCGCT | -0.0143
77 | ATTCAAAT | 0.214
78 | CTCGCTAA | 0.103
79 | GCCAGACA | -0.0659
80 | AGTGCTGG | -0.0111
81 | CTACTGAC | -0.13
82 | ATACCGGG | 0.0699
83 | GGTGTCAC | -0.132
84 | AGGCGAGG | -0.2
85 | ACAAACTG | 0.0733
86 | ATGTTATC | 0.189
